Laboratory results: publication PMC12136788
The list shows a part of the results.

B1: chr6:43570573:43570674:-|CDS|ENSG00000124571|unk|FALSE|unique (ssRNA)
RNA: GGGAGUUCUACAGUCCGACGAUCGGUGUAGGAAACACAGACAGAAUUGGUGAUGUUUAUCCUUUUGCGACUGGCAGAGGAUGUAGUGACUUUUCAGACACUUCCCCCUCAAAGAAGAAGGGACAUCCAGCAAACAUUAACCCACAACAGAGGAUUGAGCAUCA
B2: chr11:83166318:83166419:+|CDS|ENSG00000165494|unk|total|mutant (ssRNA)
RNA: GGGAGUUCUACAGUCCGACGAUCGGGACAAAACCAGGGAGAUCGAGUACCCGAAAGCGAUCAAGAUCUCGAUCACCCAAGUCCCGGUCACCAAUUAUACAUUCCCCAAAGAGAAGAGACCGGCGGUCACCCAAACGAAGGCAACAACAGAGGAUUGAGCAUCA
B3: ENSG00000198589:be:win_301|CDS|ENSG00000198589|bound_else_gene|NA|bound_elsewhere_windowed (ssRNA)
RNA: GGGAGUUCUACAGUCCGACGAUCAAAUGUGACAUUACGUGCCAAGCAGAAGUCUGGAGCAUGUUUACAGCCAUUCUGAAGAAAAGCAUACGGAAUCUUCAAGUCUGCACUGAAGUAGGCCUUGUUGAAAAAGUGCUUGGGAAACAACAGAGGAUUGAGCAUCA
B4: chr14:88620753:88620926:-|CDS|ENSG00000165521|control|control|control (ssRNA)
RNA: GGGAGUUCUACAGUCCGACGAUCCAGCCCUGAAGGGGACAUGGUGGCUAUUGGAAUGAAAAAUGGAGAAUUUAUCAUUUUACUAGUGAGUUCUCUAAAAAUAUGGGGAAAGAAGAGAGACAGGAGAUGUGCAAUCCAUGAUAUCAACAGAGGAUUGAGCAUCA
B5: chr5:154817497:154817598:+|3pUTR|ENSG00000155506|msi1_unk|total|mutant (ssRNA)
RNA: GGGAGUUCUACAGUCCGACGAUCUUAUUGAGAGUAUCUGCUUUCCAGGCUGAAGUGAUUCAUUCAUUAUUCCCGUCCUGCUUCCGUCCUUUGUAAUUUGUGGUAAUUAUGCUUUUCUUUUUAAUACAAAAAAAUGUAUAAAAACAACAGAGGAUUGAGCAUCA
B6: chr19:53069209:53069329:-|CDS|ENSG00000170949|unk|FALSE|unique (ssRNA)
RNA: GGGAGUUCUACAGUCCGACGAUCUGGAGAGAAACCUUACAAGUGCAAUGAGUGCGGCAAAGCCUUUAGUGUUCGUUCAAGCCUAGCAAUCCAUCAGACAAUCCACACUGGAGAAAAACCUUACAAAUGUAAUGAAUGUGGCAACAACAGAGGAUUGAGCAUCA
B7: ENSG00000107863:be:win_3501|CDS|ENSG00000107863|bound_else_gene|NA|bound_elsewhere_windowed (ssRNA)
RNA: GGGAGUUCUACAGUCCGACGAUCAUGUUGCAAAUUAGUUGAAGAAAGAGGUCUUGAAUAUACAGGUAUUUAUAGAGUUCCUGGAAAUAAUGCAGCCAUCUCAAGUAUGCAAGAAGAACUCAACAAGGGAAUGGCUGAUAUUGACAACAGAGGAUUGAGCAUCA
B8: chr7:92618090:92618217:-|CDS|ENSG00000105810|unk|total|mutant (ssRNA)
RNA: GGGAGUUCUACAGUCCGACGAUCUAUGUCCAUGUGUGGUUCUUUUGCCGCGUGAUUGGACUCCCAGGAGAAGAAGACUGGCCCCGAGAUGUUGCCCUUCCCAGGCAGGCUUUUCAUUCAAAAUCUGCCCAACCAAUUGAGAAGCAACAGAGGAUUGAGCAUCA
B9: chr1:235182574:235182675:-|CDS|ENSG00000054267|unk|FALSE|unique (ssRNA)
RNA: GGGAGUUCUACAGUCCGACGAUCUUUGACCAACAACAGAAAUGAUCUUAUUUCAAAGGAGGAACAGAACAGUUCAUCUUUGCUAGAAGAAAACAAAGUUCAUGCAGAUUUGGUAAUAUCCAAACCAGUGUCAAAAUCUCCAGACAACAGAGGAUUGAGCAUCA
B10: chr11:69651696:69651723:+|3pUTR|ENSG00000110092|msi1_unk|FALSE|overlapping (ssRNA)
RNA: GGGAGUUCUACAGUCCGACGAUCGAGGAUUAGGUUCCAUCCUUUACGUGUUUAAAAAAAAGCAUAAAAACAUUUUAAAAACAUAGAAAAAUUCAGCAAACCAUUUUUAAAGUAGAAGAGGGUUUUAGGUAGAAAAACAUAUUCCAACAGAGGAUUGAGCAUCA
B11: chr7:158734047:158734148:-|3pUTR|ENSG00000117868|msi1_unk|total|mutant (ssRNA)
RNA: GGGAGUUCUACAGUCCGACGAUCCUACCCGGAACACACCCUCUCACAGACGUACCAAUGUUAUUUUUAUAAUUUCAUGGAUUCCGUUAUACAUACCUUAACCGUUUUAUAAAAUUGUUGACAUUUCAGGCAAAUUUGGCCAAUCAACAGAGGAUUGAGCAUCA
B12: chr19:7926739:7926850:-|3pUTR|ENSG00000104980|unk|FALSE|unique (ssRNA)
RNA: GGGAGUUCUACAGUCCGACGAUCAGGGUGGGACCCGGGACCCGCGGCUCAGUGGCCCGCUAGCCACGUCAGCCAAGCCACUUUAGGUCCAUUUUUUAAUUUUAACAGUGCUCUUCCAUCUUGUGCAUAAGCCUGAGAUUUGGACAACAGAGGAUUGAGCAUCA
B13: chr3:50299934:50300035:-|3pUTR|ENSG00000114378|unk|FALSE|unique (ssRNA)
RNA: GGGAGUUCUACAGUCCGACGAUCCGUUGCCCAAGGUUGCACAGCAAGAAAAGGGAGAAGUUGAGAUUCAAACCCAGGCUGUCUAGCUCCGGGGGUACAGCCCUUGCACUCCUACUGAGUUUGUGGUAACCAGCCCUGCACGACCAACAGAGGAUUGAGCAUCA
B14: ENSG00000107863:be:win_3301|CDS|ENSG00000107863|bound_else_gene|NA|bound_elsewhere_windowed (ssRNA)
RNA: GGGAGUUCUACAGUCCGACGAUCAAGGAAGAGUCGGAAAGGAAACUUCUCAGUAAAGAUGAUACCAGUCCCCCAAAAGACAAAGGCACAUGGAGAAAAGGCAUUCCAAGUAUCAUGAGAAAGACAUUUGAGAAAAAGCCAACUCAACAGAGGAUUGAGCAUCA

Molecular target: MSI1 full-length (mouse, UniProt Q61474 1-362)
Sequence of UniProt Q61474 (Q61474 whole entry): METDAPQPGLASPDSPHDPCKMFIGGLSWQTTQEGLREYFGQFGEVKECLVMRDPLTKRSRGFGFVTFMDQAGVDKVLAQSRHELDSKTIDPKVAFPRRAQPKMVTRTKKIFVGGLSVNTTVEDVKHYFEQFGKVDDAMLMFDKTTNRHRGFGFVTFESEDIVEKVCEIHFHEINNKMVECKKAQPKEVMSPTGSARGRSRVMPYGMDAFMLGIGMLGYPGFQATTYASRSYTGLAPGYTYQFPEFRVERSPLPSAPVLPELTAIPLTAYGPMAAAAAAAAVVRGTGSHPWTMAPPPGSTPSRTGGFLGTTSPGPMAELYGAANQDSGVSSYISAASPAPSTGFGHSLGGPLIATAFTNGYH
Test: nsRBNS (natural sequence RNA bind-n-seq); RBNS binding buffer (assumed for nsRBNS): 25 mM Tris pH 7.5, 150 mM KCl, 3 mM MgCl2, 0.01% Triton X-100, 500 ug/ml BSA, 20 U/ml SUPERase-In, 4 C; UNK is unkempt and MSI1 is Musashi-1; names of the RNAs are library labels; protein concentration not given here; high values mean tight binding

With B1 as the binder, how does the binding signal read?
The binding signal was 0.397 enrichment R.

Which binding signal does the source give for B2 here?
Its binding signal is 0.29 enrichment R.

For B3, which binding signal is on record?
Its binding signal is 0.234 enrichment R.

How did the binding signal turn out when B4 was run?
The binding signal was 0.549 enrichment R.

With B5 as the binder, how does the binding signal read?
The binding signal was 0.621 enrichment R.

With B6 as the binder, how does the binding signal read?
The binding signal was 0.707 enrichment R.

With B7 as the binder, how does the binding signal read?
The binding signal was 3.14 enrichment R.

With B8 as the binder, how does the binding signal read?
The binding signal was 0.406 enrichment R.

For B9, which binding signal is on record?
The binding signal was 0.21 enrichment R.

For B10, which binding signal is on record?
The binding signal was 17.8 enrichment R.

For B11, which binding signal is on record?
The binding signal was 0.582 enrichment R.

Which binding signal does the source give for B12 here?
Its binding signal is 0.641 enrichment R.

For B13, which binding signal is on record?
Its binding signal is 0.373 enrichment R.

For B14, which binding signal is on record?
The binding signal was 0.359 enrichment R.
